41 compounds from ChEMBL document CHEMBL4888484, “Replenishing the malaria drug discovery pipeline: Screening and hit evaluation of the MMV Hit Generation Library 1 (HGL1) against asexual blood stage Plasmodium falciparum ,using a nano luciferase reporter read-out” (2022) can be followed below.

Out of some 150,000 compounds screened, about 540 (0.36%) showed an effect of 50% or more. This is one part of the list.

This assay relates to Plasmodium falciparum. In words: Primary screen in NF54 nanoGlo assay, in single point, at 2uM, 72h; a lower Z score goes with more inhibition. To be noted: timepoint 72 hour. The class given is functional, Erythrocyte.
The % Inhibition is the relative decrease from the control value, in per cent. In the case of `Oc1cc(Cn2cc(COCc3ccccc3)nn2)ncn1`, the “% Inhibition” value came out at 0% and the Z score is on record as 0.02.
For the compound `CCOC(=O)c1sc2nc(-c3ccc(OC(C)C)cc3)c(NC3CCCC3)n2c1C`, the “% Inhibition” value is given as -10% and the Z score is 1.19.
As to `COc1ccc(C(=O)Nc2sc3c(c2C)CCCC3)nn1`, the “% Inhibition” value turned out to be 9% and the Z score is given as -1.53.
As for `C[C@H](O)CC(C)(C)CNC(=O)NCc1cccc(C(F)(F)F)c1`, the “% Inhibition” value was -6% and the Z score is listed as 0.9.
As for `Cc1noc(-c2cccn3c(CNC(=O)c4c(C)noc4C)nnc23)n1`, the “% Inhibition” value is -12% and the Z score amounted to 1.53.
As for `COc1ccc(-n2cc([C@H](C)Nc3nnc(C4CC4)o3)cn2)cc1`, the “% Inhibition” value is -6% and the Z score is listed as 1.
Take `O=C(Nc1cccnc1)N1CC[C@@H](C(F)(F)F)C2(CCOCC2)C1`: the “% Inhibition” value is -15% and the Z score is 1.54.
Regarding `CCN(CC)CCCC(C)NC(=O)CC(c1ccc(Cl)cc1)c1cn(Cc2ccc(C)cc2)c2ccccc12` (configuration not stated), the “% Inhibition” value is listed as 12% and the Z score was -1.18.
Consider `CC(C)(C)OC(=O)N1CCCCC[C@H]1c1noc(-c2cnccn2)n1`, for which the “% Inhibition” value was found to be 9% and the Z score is recorded as -1.
Take `CCN1C(=O)Cc2cc(NC(=O)Nc3ccc4c(c3)OCO4)ccc21`: the “% Inhibition” value turned out to be 3% and the Z score is recorded as -0.39.
For the compound `CC1(C)Cc2nc(N3CCC(O)CC3)ncc2[C@@H](Nc2cc(C3CC3)ncn2)C1`, the “% Inhibition” value is 7% and the Z score is listed as -1.25.
Regarding `O=C(Cc1cccs1)NC[C@]1(O)CCOc2ccccc21`, the “% Inhibition” value came out at 4% and the Z score is -0.54.
Turning to `O[C@H]1CCCN(CCCNc2cc(-c3ccccc3F)nc3ccnn23)C1`, the “% Inhibition” value is -6% and the Z score came to 0.59.
As to `COc1ccc(-c2cnc3ncnn3c2N2CCN(Cc3c(C)cc(C)cc3C)CC2)cc1OC`, the “% Inhibition” value was -10% and the Z score was determined as 1.43.
`COc1cc(NC(=O)N2CCOC[C@@H]2CC(C)C)cc(Cl)c1OC`: the “% Inhibition” value came to 16% and the Z score is on record as -2.02.
For the compound `O=C(NCc1ccc(Cl)cc1)c1ccc(Cl)c(-n2cnc3cccnc32)c1`, the “% Inhibition” value is recorded as 1% and the Z score was -0.17.
As to `CS(=O)(=O)c1ccc(Cl)c(C(=O)N2CCc3cc(S(=O)(=O)N4CCCCC4)ccc32)c1`, the “% Inhibition” value is -13% and the Z score amounted to 2.52.
For `Cc1ccc(C[C@H](CO)CNC(=O)c2cc3cc(F)ccc3o2)cc1`, in that order: -1% and 0.11.
Consider `Cc1onc(N)c1S(=O)(=O)N1CCN(c2ccccn2)CC1`, for which the “% Inhibition” value worked out at 1% and the Z score was -0.21.
Consider `CCOCCCNC(N)=NCCc1ccc(OC(F)F)cc1`, for which the “% Inhibition” value is on record as -2% and the Z score was determined as 0.19.
On the same counts, the results for `Cc1nn(CCCNC(=O)CC(=O)Nc2cccc(Cl)c2C)c(C)c1C` are -4% and 0.7.
`Cc1cc(C)n(-c2ccnc(N3CCN(c4ccccc4F)CC3)n2)n1`: the “% Inhibition” value is listed as -27% and the Z score was 2.92.
On the same counts, the results for `C[C@H](OC(=O)c1ccccc1)C(=O)Nc1ccc(S(=O)(=O)N2CCOCC2)cc1` are -7% and 1.43.
Turning to `C[C@@H](CNC(=O)C1(F)C(F)(F)C(F)(F)C(F)(F)C(F)(F)C1(F)F)NC(=O)C1(F)C(F)(F)C(F)(F)C(F)(F)C(F)(F)C1(F)F`, the “% Inhibition” value was -6% and the Z score was found to be 0.94.
As to `Cn1cccc1C(=O)N1CCCC2CC21` (configuration not stated), the “% Inhibition” value came out at 0% and the Z score was 0.01.
Turning to `Cc1cc(Br)ccc1CN[C@@H](C)CO`, the “% Inhibition” value was 2% and the Z score was -0.21.
`COc1ccc(N2CCN(C(=O)C(=O)NC3CCCC3)CC2)cc1`: the “% Inhibition” value is -3% and the Z score is 0.48.
For `C[C@H](NC(=O)C1CCN(S(=O)(=O)c2ccc3nc4c(c(C(=O)O)c3c2)CCCC4)CC1)c1ccccc1`, the “% Inhibition” value was -10% and the Z score was determined as 1.52.
As to `CN(CCc1noc(C2CN(S(=O)(=O)c3cccnc3)C2)n1)C(=O)c1ccncc1`, the “% Inhibition” value is listed as -3% and the Z score amounted to 0.32.
For `Cc1cc(C(=O)N2CCS(=O)(=O)C3CCCC32)oc1C` (configuration not stated), in that order: -9% and 1.88.
Take `Cc1nc(NC2CCCCC2)sc1C(=O)NCc1ccccc1`: the “% Inhibition” value was found to be 29% and the Z score is listed as -3.25.
Take `O=C(CCCN1CCCC1)c1ccc(F)c(F)c1`: the “% Inhibition” value was 2% and the Z score was -0.21.
As to `COCC[C@H]1COCCN1C(=O)c1ccnc(C2CC2)c1`, the “% Inhibition” value was -10% and the Z score was 1.69.
For `Cc1cccc(-c2nc(NC[C@H]3CCCO3)nc3nn(-c4cc(F)ccc4F)c(N)c23)c1`, in that order: -6% and 1.03.
Consider `CN1c2ccccc2C(=O)N[C@@H]1c1cccc2ccccc12`, for which the “% Inhibition” value was 5% and the Z score is -0.91.
`O=c1[nH]c2cc3c(cc2c(=O)n1Cc1nc(-c2cccc(F)c2)no1)OCO3`: the “% Inhibition” value is given as -1% and the Z score is reported as 0.08.
For `COCC(=O)N1CC[C@@]2(O)CCN(Cc3c(C)sc4ccccc34)C[C@H]2C1`, in that order: -1% and 0.13.
On the same counts, the results for `Cc1ccc(C(=O)N2C[C@H]3CN(C(=O)C(C)C)C[C@@]3(CO)C2)cc1F` are -9% and 1.18.
As for `Cc1csc(C(C)CN2C(=O)NC(Cc3cccc4ccccc34)C2=O)n1` (configuration not stated), the “% Inhibition” value came out at 4% and the Z score is listed as -0.58.
On the same counts, the results for `CC(C)C(=O)N(Cc1ccc(-c2cc(Cl)ccc2Cl)o1)[C@H]1CCS(=O)(=O)C1` are -11% and 1.48.
With `O=C(OC1CCCC1)c1ccc(NC(=O)N2CCC3(CC2)C[C@H](O)CO3)cc1`, the “% Inhibition” value is reported as -10% and the Z score was found to be 1.59.
